Source: PubChem BioAssay (NCATS)
The list shows a part of the results. These are further read-outs of the screen, such as a control signal, another cell line or another target. No call is given for them. Most of these compounds were active or inconclusive in the main read-out, so they are no random draw. Words in brackets tell the shape of the fitted curve; partial curves, single points and poor fits give uncertain potencies.

Columns and labels:
[1] = qHTS Assay for Lipid Storage Modulators (AID 1519); details: Drosophila S3 cells, BODIPY lipid droplet/cell ratio, laser cytometry, cells loaded with oleic acid; for AC50: measured here: lipid (BODIPY) channel AC50
Procedure, shortened: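 Cells seeded at 5,000 per well were treated with compounds over a concentration series and loaded with oleic acid (400 uM, as added). Lipid droplet fluorescence (488 nm excitation, 500-530 nm channel) was read by laser-scanning cytometry and normalized to 20 uM Triacsin C.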

[2] = qHTS Assay for Modulators of Human Peripheral Myelin Protein 22 (PMP22) Expression/Activity (AID 1967); details: Cell-based PMP22 reporter, dual-color luciferase ratio
Procedure, shortened: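 Readout is the corrected green/red luminescence ratio after 24 h compound exposure, normalised to untreated cells (0%). Engineered MSC80 mouse Schwann cells express green luciferase from the mouse Pmp22 promoter and red luciferase from EF-alpha as internal control.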

[3] = qHTS Validation Assay to Find Inhibitors of Chronic Active B-Cell Receptor Signaling (AID 485345); details: ABC-DLBCL cells, chronic BCR signaling reporter; measured here: CBR control luciferase (viability counter)
Procedure, shortened: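 TMD8 ABC-DLBCL cells stably carrying doxycycline-inducible IkappaBalpha–green luciferase fusion plus unfused red luciferase; compounds 46 uM to 3 nM, 4 h at 37C with doxycycline. Corrected green/red luminescence ratio normalized to 10 uM MG-132 and basal cell wells; curves fitted.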

[4] = Nrf2 qHTS screen for inhibitors: Validation (AID 493153); details: A549 ARE-Fluc reporter, 18-24 h; AC50: CellTiter-Fluor fluorescence read, measured here: cytotoxicity CellTiter-Fluor AC50; viability change: measured here: cytotoxicity max response
Procedure, shortened: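 Luminescence from an ARE-firefly luciferase reporter in A549 cells gives Nrf2 inhibition; an earlier CellTiter-Fluor fluorescent read flags cytotoxicity. Cells in 5% FBS OPTI-MEM received compound dilution series for 18-24 h at 37°C.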

[5] = qHTS Assay for Inhibitors of PDE-IV (AID 607); details: HEK293 ACTOne CNG channel cells, membrane potential fluorescence; measured here: parental cell counter-screen;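 further: parental cells stimulated with forskolin 10 µM plus RO 20-1724 100 µM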
Procedure, shortened: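 Live HEK293 cells with a modified cyclic nucleotide-gated (CNG) channel report intracellular cAMP via membrane-potential dye fluorescence (ex 535/em 590 nm). Endogenous PDE-IV was targeted. Compounds were tested at up to 22.9 uM final; RO 20-1724 100 uM served as control.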

[6] = A High-Content qHTS Against Drug Library for the Identification of Small Molecules that Inhibit DYT1 Early Onset Primary Dystonia-Associated Cell Pathology (AID 1645839); details: HEK293 Flp-In EGFP-delE TorsinA, punctate imaging, 48 h; measured here: cell count cytotoxicity
Procedure, shortened: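 Flp-In T-REx 293 cells with tetracycline-inducible EGFP-delE hTOR1A (WT EGFP-hTOR1A as reference), 800 cells/well; compound added with tetracycline, 48 h at 37 C. Fixed, permeabilized cells imaged; %pathology (punctate TorsinA) primary, cell count counterscreen.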

[7] = S16 Schwann cell PMP22 intronic element beta-lactamase assay (AID 624044); details: S16 rat Schwann cells, PMP22 element beta-lactamase FRET, 24 h; further: nearly all actives have a fitted effect of over 15% in size
Procedure, shortened: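 Rat S16 Schwann cells with beta-Lac driven by a PMP22 intronic element, compound-treated 24 h at 37 °C. LiveBLAzer FRET B/G read: 460 nm normalized to potassium clavulanate vs DMSO; 535 nm FRET as viability; concentration-effect curves classified.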

[8] = measured here: cell count channel max response
[9] = measured here: lipid channel max response
[10] = measured here: green reporter channel AC50, mouse Pmp22 promoter in mouse Schwann cells
[11] = measured here: red reporter channel AC50, EF-alpha promoter control reporter in MSC80 mouse Schwann cells
Tags describe the fitted curve by direction and shape.

Question: With COC(=O)C(N)Cc1ccc(Cl)cc1 (configuration not stated) as the compound, how does the max response [1, 8] read?
Answer: Its max response is 42.1%.

Question: What about the max response [1, 9] of the same compound?
Answer: The max response was 38.9%.

Question: What about the AC50 [2, 10] of the same compound?
Answer: The AC50 was 84.9 µM [falling, single point].

Question: What about the AC50 [2, 11] of the same compound?
Answer: The AC50 was 84.9 µM [falling, single point].

Question: Which max response [1, 8] does the source give for NC(N)=NC(=O)Cc1c(Cl)cccc1Cl here?
Answer: Its max response is 55.9%.

Question: And the max response [1, 9]?
Answer: Its max response is 57.1%.

Question: What about the AC50 [2, 10] of the same compound?
Answer: The AC50 was 60.1 µM [falling, partial curve].

Question: And the AC50 [2, 11]?
Answer: The AC50 was 67.5 µM [falling, partial curve].

Question: What about the AC50 [3] of the same compound?
Answer: Its AC50 is 1.03 µM [rising, full curve, poor fit].

Question: And the viability change [4]?
Answer: Its viability change is 1.72%.

Question: Which AC50 [5] does the source give for O=C(O)c1cc([N+](=O)[O-])ccc1NCCCc1ccccc1 here?
Answer: The AC50 was 15.8 µM [rising, partial curve].

Question: And the max response [1, 8]?
Answer: The max response was 59.2%.

Question: And the max response [1, 9]?
Answer: The max response was 83.5%.

Question: What about the AC50 [2, 11] of the same compound?
Answer: The AC50 was 1.35 µM [falling, full curve].

Question: What about the AC50 [4] of the same compound?
Answer: Its AC50 is 20.6 µM [falling, partial curve, poor fit].

Question: And the viability change [4]?
Answer: Its viability change is -31.5%.

Question: Which results are given for CC(COc1ccc(/C=C/c2ccccc2)cc1)[N+](C)(C)C (configuration not stated)?
Answer: max response [1, 8]: -17.2%; max response [1, 9]: -56%; AC50 [2, 10]: 47.8 µM [falling, partial curve]; AC50 [2, 11]: 75.7 µM [falling, single point]; viability change [4]: -1.02%

Question: With NCC(O)c1ccc(O)c(O)c1 (configuration not stated) as the compound, how does the max response [1, 8] read?
Answer: Its max response is 50.9%.

Question: What about the max response [1, 9] of the same compound?
Answer: Its max response is 50.3%.

Question: And the AC50 [2, 10]?
Answer: The AC50 was 84.9 µM [falling, single point].

Question: And the AC50 [2, 11]?
Answer: The AC50 was 84.9 µM [falling, single point].

Question: Which max response [1, 8] does the source give for CNC(=O)[C@H]1O[C@@H](n2cnc3c(NCc4ccc(N)cc4)ncnc32)[C@H](O)[C@H]1O here?
Answer: The max response was 34.4%.

Question: What about the max response [1, 9] of the same compound?
Answer: The max response was 35.1%.

Question: And the AC50 [2, 11]?
Answer: Its AC50 is 95.3 µM [falling, single point].

Question: What does the source list for Brc1c(Br)c(Br)c2n[nH]nc2c1Br?
Answer: max response [1, 8]: 56.5%; max response [1, 9]: 57.5%; AC50 [3]: 6.51 µM [falling, partial curve]

Question: What does the source list for O=C1N=C(O)CN1/N=C/c1ccc(-c2ccc([N+](=O)[O-])cc2)o1?
Answer: max response [1, 8]: -16.5%; max response [1, 9]: -15%; AC50 [2, 10]: 2.39 µM [rising, full curve, poor fit]; AC50 [2, 11]: 95.3 µM [falling, single point]

Question: What does the source list for O=C(CCCN1CCC(O)(c2cccc(C(F)(F)F)c2)CC1)c1ccc(F)cc1?
Answer: max response [1, 8]: 37.2%; max response [1, 9]: 35.9%; AC50 [2, 10]: 42.6 µM [falling, full curve]; AC50 [2, 11]: 42.6 µM [falling, partial curve]

Question: Which max response [1, 8] does the source give for Cn1c(=O)c2[nH]c(-c3ccc(S(=O)(=O)O)cc3)nc2n(C)c1=O here?
Answer: The max response was 74.8%.

Question: What about the max response [1, 9] of the same compound?
Answer: The max response was 74.2%.

Question: What about the AC50 [3] of the same compound?
Answer: The AC50 was 4.11 µM [falling, full curve].

Question: For C=CC1(C)CC(=O)C2(O)C(C)(O1)C(OC(C)=O)C(O)C1C(C)(C)CCC(O)C12C (configuration not stated), which max response [1, 8] is on record?
Answer: The max response was 39.7%.

Question: And the max response [1, 9]?
Answer: Its max response is 39%.

Question: What about the AC50 [2, 10] of the same compound?
Answer: The AC50 was 6.75 µM [rising, full curve].

Question: And the AC50 [2, 11]?
Answer: The AC50 was 0.0213 µM [falling, full curve, poor fit].

Question: With CCC(C)N(C)C(=O)c1cc2ccccc2c(-c2ccccc2Cl)n1 (configuration not stated) as the compound, how does the max response [1, 8] read?
Answer: The max response was -13.7%.

Question: What about the max response [1, 9] of the same compound?
Answer: Its max response is -14.3%.

Question: What about the AC50 [2, 10] of the same compound?
Answer: Its AC50 is 75.7 µM [falling, single point].

Question: And the AC50 [2, 11]?
Answer: Its AC50 is 75.7 µM [falling, single point].

Question: For CC(O)C(=O)O (configuration not stated), which AC50 [6] is on record?
Answer: The AC50 was 10 µM [rising, partial curve, poor fit].

Question: With CCOC(=O)Cn1cccc1-c1nc(-c2ccc(OC)cc2)c(-c2ccc(OC)cc2)s1 as the compound, how does the AC50 [6] read?
Answer: Its AC50 is 0.501 µM [falling, full curve, poor fit].

Question: With Oc1ccc(Cl)cc1Sc1cc(Cl)ccc1O as the compound, how does the AC50 [6] read?
Answer: Its AC50 is 35.5 µM [falling, single point].

Question: With CN1CCC(=C2c3ccccc3Sc3ccccc32)CC1 as the compound, how does the AC50 [6] read?
Answer: The AC50 was 25.1 µM [falling, single point].

Question: For CCCC(CCC)(C(=O)OCC)C(=O)OCC, which AC50 [6] is on record?
Answer: Its AC50 is 35.5 µM [rising, single point].

Question: With Cc1cc(-n2nc3ccc(Cl)cc3n2)c(O)c(C(C)(C)C)c1 as the compound, how does the AC50 [6] read?
Answer: The AC50 was 35.5 µM [rising, partial curve, poor fit].

Question: What does the source list for COc1ccc(NC(=O)c2ccc(-c3ccc(-c4noc(C)n4)cc3C)cc2)cc1OCCN(C)C?
Answer: AC50 [5]: 25.1 µM [rising, single point]; max response [1, 8]: 50.3%; max response [1, 9]: 65.2%

Question: For CS(=O)(=O)N1CCC[C@@]2(CCN(C(c3ccccc3)c3ccccc3)C2)C1, which AC50 [5] is on record?
Answer: The AC50 was 10 µM [rising, single point].

Question: And the AC50 [1]?
Answer: Its AC50 is 10 µM [falling, partial curve].

Question: With COc1cc(C2c3cc4c(cc3C(O[C@@H]3OC5COC(c6cccs6)OC5C(O)C3O)C3COC(=O)C23)OCO4)cc(OC)c1O (some centres not stated) as the compound, how does the AC50 [1] read?
Answer: The AC50 was 5.01 µM [falling, partial curve].

Question: What about the AC50 ([7]; measured here: 460 nm blue channel) of the same compound?
Answer: The AC50 was 0.446 µM [falling, full curve, poor fit].

Question: And the AC50 ([7]; measured here: 530 nm viability channel)?
Answer: Its AC50 is 2.82 µM [rising, partial curve].

Question: Which AC50 [5] does the source give for O=C(c1cccc(F)c1)N1CCC[C@@]2(CCN(c3cccc(-c4ccccc4)c3)C2)C1 here?
Answer: Its AC50 is 3.98 µM [rising, single point].

Question: And the max response [1, 8]?
Answer: The max response was -0.63%.

Question: And the max response [1, 9]?
Answer: Its max response is -57.7%.
